Results as given in PubChem BioAssay AID602310 (National Center for Advancing Translational Sciences (NCATS), 2012).
Among all 410,000 compounds or so, about 310 (0.076%) were called active. Inconclusive means that the source gave no clear call. Such entries were picked first, then a sample of the others. Calls come from the whole dose curve; as a rule, active = well fitted curve in the direction sought with a large enough effect; inconclusive = small, poorly fitted or top-dose-only effect; inactive = flat fitted curve, though single readings scatter. Potencies of inconclusive entries are doubtful fits and often do not repeat.

Biological target: DNA dC->dU-editing enzyme APOBEC-3G (Homo sapiens) (UniProt Q9HC16)
Experiment: qHTS for Inhibitors of Vif-A3G Interactions: qHTS; note: nearly all actives have a fitted effect of over 60% in size
Conditions: HeLa A3G-eYFP + Vif (tagged APOBEC3G with the HIV-1 protein that degrades it), YFP fluorescence, overnight; series mostly up to 46.1 µM
Outline: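 HeLa cells stably expressing Vif and C-terminally eYFP-tagged A3G, seeded overnight at 37 deg C, then exposed to compound by pintool overnight at 37 deg C. Rise in yellow fluorescence (Ex 488/Em 500-530, Acumen) marks blocked Vif-driven A3G degradation.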
Potency is the fitted concentration of half-maximal effect; tags give direction and shape of the fitted curve.

UniProt Q9HC16, sequence (Q9HC16 whole entry, looked up): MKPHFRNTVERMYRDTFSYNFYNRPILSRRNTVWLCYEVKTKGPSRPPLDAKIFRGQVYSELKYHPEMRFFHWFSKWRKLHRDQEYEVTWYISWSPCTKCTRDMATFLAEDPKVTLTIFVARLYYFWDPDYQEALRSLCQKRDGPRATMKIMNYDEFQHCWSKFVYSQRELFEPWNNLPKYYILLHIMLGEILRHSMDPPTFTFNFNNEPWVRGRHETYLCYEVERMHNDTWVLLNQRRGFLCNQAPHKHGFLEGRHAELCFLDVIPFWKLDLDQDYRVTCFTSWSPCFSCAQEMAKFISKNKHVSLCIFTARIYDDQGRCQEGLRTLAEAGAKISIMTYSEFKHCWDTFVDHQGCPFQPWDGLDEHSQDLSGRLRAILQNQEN

SMILES	Potency
Oc1ccc(-c2nc(-c3ccc(O)c(O)c3)cs2)cc1	inconclusive: 0.891 µM [inhibitor, full curve, poor fit]
Cc1cccc(NC(=O)c2ccc([N+](=O)[O-])s2)n1	inactive
COc1cc2c(cc1OC)CN(C(C)C(=O)N1CCc3ccccc31)CC2 (stereo not drawn)	inconclusive: 10 µM [inhibitor, partial curve]
COc1ccc(CCCNC(=O)C2Cc3c(-c4ccc(NC(C)=O)cc4)ccnc3O2)cc1 (stereo not drawn)	inconclusive: 12.6 µM [inhibitor, single point]
Cc1cc(C)c2c(N)c(C(=O)Nc3ccccc3C(F)(F)F)sc2n1	inactive
O=C(c1ccccc1)C1C(=O)c2ccccc2C1=O	inconclusive: 31.6 µM [inhibitor, single point]
Cc1cccc(N2CCN(C(=S)c3ccc(-c4ccccc4[N+](=O)[O-])o3)CC2)c1	inconclusive: 3.16 µM [inhibitor, full curve]
COc1ccc(CCn2c(C)cc(C(=O)CCl)c2C)cc1OC	inconclusive: 20 µM [inhibitor, single point]
COc1cc(/C=C2/SC(=S)N(Cc3ccccc3)C2=O)cc(Cl)c1O	inconclusive: 1.41 µM [inhibitor, full curve, poor fit]
CN(C)C(=O)c1ccc(/C=C/c2ccnc3ccccc23)cc1	inconclusive: 22.4 µM [inhibitor, single point]
O=C(CC(Sc1ccc(Br)cc1)C(=O)O)c1ccc(F)cc1 (stereo not drawn)	inconclusive: 25.1 µM [inhibitor, single point]
CCC(=O)N1COC[C@@H]1Cc1ccccc1	inconclusive: 5.62 µM [inhibitor, single point]
CCCc1[nH][nH]c(=O)c1C(c1cccc(Cl)c1)C(C#N)C#N (stereo not drawn)	inconclusive: 22.4 µM [inhibitor, single point]
COc1ccc(NC(=S)NC(=O)Cc2ccccc2)cc1	inactive
C(=NNc1ccc2ccccc2n1)c1ccccn1	inconclusive: 10 µM [inhibitor, partial curve, poor fit]
O=C(COC(=O)c1ccc(S(=O)(=O)N2CCCC2)cc1)Nc1ccc(N2CCOCC2)cc1	inactive
CCN(C(=O)COC(=O)/C=C/c1ccco1)C1CCCCC1	inactive
O=c1cc(-c2ccccc2)[nH]c2ccc(F)cc12	inconclusive: 1.58 µM [inhibitor, full curve, poor fit]
O=C(N/N=C/c1ccc([N+](=O)[O-])o1)c1ccccc1NS(=O)(=O)c1cccs1	inconclusive: 3.16 µM [inhibitor, partial curve, poor fit]
O=C(/C=C/c1ccccc1)CCN1CCCCC1	inconclusive: 14.1 µM [inhibitor, single point]
Cc1c(CCOC(=O)c2cc([N+](=O)[O-])cc([N+](=O)[O-])c2)sc[n+]1CC(=O)c1ccc(Br)cc1	inconclusive: 35.5 µM [inhibitor, single point]
COc1ccc(OC(=O)c2cccc([N+](=O)[O-])c2)c(C(=O)/C=C/c2cccs2)c1	inactive

SMILES	Potency
N#Cc1c(NC(=O)c2ccccc2Cl)n(Cc2ccccc2)c2nc3ccccc3nc12	inconclusive: 35.5 µM [inhibitor, single point]
Cc1nc(NC(=O)C2CC2)sc1C(=O)Nc1cccc(Cl)c1	inactive
Cc1ccc(CNC(=O)C2CCCN(S(=O)(=O)c3c(C)noc3/C=C/N(C)C)C2)cc1 (stereo not drawn)	inactive
COC(=O)c1c(-c2ccc(S(C)(=O)=O)cc2)sc2ccc(OC)cc12	inactive
CCc1ccc(C(C#N)=CC=Cc2ccccc2)cc1	inconclusive: 11.2 µM [inhibitor, partial curve, poor fit]
Oc1ccc(/C=N/N=C/c2ccc(O)c(O)c2)cc1O	inconclusive: 12.6 µM [inhibitor, single point]
C/C(CC(=O)NCc1ccc(Cl)cc1)=N\NC(=O)COc1ccc(C)cc1Br	inconclusive: 3.98 µM [inhibitor, full curve, poor fit]
CC(C)NC(=O)N1c2ccccc2Sc2ccccc21	inconclusive: 17.8 µM [inhibitor, partial curve, poor fit]
O=C(Cc1ccc(-n2c(=O)c3sccc3n(Cc3ccc(F)cc3)c2=O)cc1)NCc1ccco1	inconclusive: 35.5 µM [inhibitor, single point]
COc1ccccc1N1CCN(C(=O)c2cc(=O)c3cc(C)cc(C)c3o2)CC1	inconclusive: 1.12 µM [inhibitor, full curve, poor fit]
Cn1c(=O)n(C)c2cc(NC(=O)CCl)ccc21	inconclusive: 31.6 µM [inhibitor, single point]
COc1ccc(N2CC(NC(=O)NC(C)(C)C)CC2=O)cc1 (stereo not drawn)	inactive
CN1CCC(N(C)C(=O)c2ccccc2Nc2ccc(SC(F)F)cc2)CC1	inactive
Cc1nc2ccccn2c1-c1csc(Nc2ccc(C(=O)O)cc2)n1	inconclusive: 35.5 µM [inhibitor, single point]
CCc1ccc2oc(C(=O)N3CCN(c4ccccc4OC)CC3)cc(=O)c2c1	inconclusive: 2.82 µM [inhibitor, full curve, poor fit]
CCOC(=O)/C=c1\s/c(=C\c2c(OCC)ccc3ccccc23)c(=O)n1CC(=O)NCC1CCCO1 (stereo not drawn)	inconclusive: 22.4 µM [inhibitor, single point]
CCOc1ccc(-c2nnn(CC#N)n2)cc1OC	inconclusive: 15.8 µM [inhibitor, single point]
COc1cccc(N2CC(O)=C(c3nc4ccccc4c(=O)[nH]3)C2=N)c1	inconclusive: 1.78 µM [inhibitor, full curve, poor fit]
CCCCCCCCCc1nc2sc3c(c2c(=O)n1NC(=O)c1ccc([N+](=O)[O-])cc1)CC(C)(C)OC3	inactive
CCCOc1c(OC)cccc1C1CC(=O)Nc2cc3c(cc21)OCO3 (stereo not drawn)	inconclusive: 3.16 µM [inhibitor, partial curve, poor fit]
CC1(c2ccc(Cl)cc2Cl)OCC(Cn2ccnc2)O1 (stereo not drawn)	inconclusive: 35.5 µM [inhibitor, single point]
